# The list shows a part of the results. Values were computed here from the reads of four pooled replicates and scatter widely.
# Molecular target: T1, Pho4 (S. cerevisiae) (UniProt P07270)
# T1 sequence: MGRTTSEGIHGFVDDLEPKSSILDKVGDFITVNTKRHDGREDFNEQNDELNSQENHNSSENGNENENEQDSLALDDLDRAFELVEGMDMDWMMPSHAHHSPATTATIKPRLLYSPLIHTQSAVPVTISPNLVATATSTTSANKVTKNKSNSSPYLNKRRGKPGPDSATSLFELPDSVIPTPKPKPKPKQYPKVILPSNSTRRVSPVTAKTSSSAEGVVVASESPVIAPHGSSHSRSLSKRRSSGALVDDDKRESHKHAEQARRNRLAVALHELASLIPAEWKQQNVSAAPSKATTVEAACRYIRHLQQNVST
# Experiment: relative binding free energy (BET-seq); higher = weaker binding
# Settings: reference: library average
row,Sequence,relative binding free energy [kcal/mol]
1,GGATGCACGTGGAGCG,-0.09
2,CGGTGCACGTGGTTGC,-0.14
3,TGGGGCACGTGTTCGC,-0.19
4,TTGTTCACGTGCTCAG,0.24
5,ATCTGCACGTGGAGGT,-0.04
6,GGTGTCACGTGTTGAA,0.04
7,CTGCTCACGTGTTATG,0.37
8,AGGAGCACGTGGGGTG,-0.32
9,TATCGCACGTGTGAGT,0.11
10,AGAGGCACGTGGTAGG,-0.1
11,TGGGGCACGTGGAAAA,-0.04
12,TTTTGCACGTGATAAA,0.12
13,AGTTACACGTGTTTAT,0.08
14,TGATTCACGTGCTTTT,0.27
15,TACTACACGTGAGGGT,0.33
16,TTCGTCACGTGGTAGA,0.02
17,CGGAACACGTGTAGGT,0.03
18,GTTTCCACGTGATTGG,0.2
19,ATATGCACGTGTTGTG,-0.11
20,TTTGACACGTGCTTCG,-0.08
21,TTCGTCACGTGAAAGG,0.17
22,GTAAACACGTGTTTAG,0.17
23,GCTGCCACGTGGGGGG,-0.32
24,GCGGGCACGTGTATTG,-0.1
25,CTGGTCACGTGGAGGC,0.12
26,TTGTGCACGTGGGTTA,-0.1

row,Sequence,relative binding free energy [kcal/mol]
1,GATGGCACGTGGGGCT,-0.29
2,ATGAGCACGTGTGTAG,0.05
3,TTTCACACGTGGTATG,-0.04
4,CAAAACACGTGGGTTG,-0.1
5,GTTTGCACGTGACGGC,0.37
6,TATGGCACGTGGTTTG,-0.13
7,CGGGTCACGTGGTGGA,0.09
8,AATGCCACGTGGTTTG,-0.11
9,ATTTGCACGTGGACGG,0.03
10,TGAATCACGTGATGGA,0.43
11,GATGGCACGTGTGTCG,-0.15
12,GAGAGCACGTGGCGGG,-0.27
13,TTAATCACGTGCTGGT,0.1
14,TTTCTCACGTGAGGTA,0.28
15,TGTTCCACGTGTTTGT,0.05
16,TGGATCACGTGGCAGT,0.07
17,AAGTTCACGTGATTGT,0.27
18,GAGTTCACGTGTGGTA,0.52
19,GTGGCCACGTGTTTAT,-0.08
20,CATGGCACGTGTGGGG,0.02
21,GGTAACACGTGGCGGG,0.08
22,GTAGGCACGTGTTGTG,-0.1
23,TAGTTCACGTGACGTA,0.38
24,GTCTTCACGTGTTGAT,0.3
25,GTCAGCACGTGAAGTT,0.29
26,AATTTCACGTGTTGGG,0.32

row,Sequence,relative binding free energy [kcal/mol]
1,TGTAGCACGTGAGAGT,0.13
2,GCAGGCACGTGGGAGT,-0.16
3,AAGGGCACGTGGGGCC,-0.17
4,ATTTTCACGTGTTCGG,0.28
5,AGGGGCACGTGGCTGT,-0.22
6,TTGTGCACGTGAGGGG,0.21
7,GAGGTCACGTGAGATG,0.38
8,TTTAGCACGTGTCGGG,-0.09
9,TTTTTCACGTGCGGAA,0.14
10,GTGTCCACGTGGTCGT,-0.04
11,TGGTCCACGTGAGATG,0.24
12,AATATCACGTGGTAGC,0.35
13,TACATCACGTGTGATG,0.42
14,CGTTGCACGTGCAGGT,-0.01
15,TGATGCACGTGATGGG,0
16,GATATCACGTGTAATG,0.11
17,AAATGCACGTGGTAAT,-0.01
18,TTCTTCACGTGGTTGC,0.26
19,AGGTTCACGTGTATTC,0.3
20,GTGTGCACGTGATCAT,0.14
21,GAGGGCACGTGGTGGC,-0.1
22,TTTTACACGTGGCAGT,0.1
23,CATGGCACGTGGTCGT,-0.15
24,TGTGGCACGTGATCGC,-0.06
25,TATTTCACGTGCGGGA,0.21
26,TTGGACACGTGGCAGT,-0.15

row,Sequence,relative binding free energy [kcal/mol]
1,TATAGCACGTGCTGTG,-0.19
2,GGGAGCACGTGCTGAT,-0.08
3,TCTTGCACGTGGGGTG,-0.11
4,CTGTCCACGTGGGGAT,-0.09
5,TATTTCACGTGTAATG,0.3
6,TGATTCACGTGGCTTT,0.24
7,TATTGCACGTGTTCGG,-0.02
8,GCGGGCACGTGTGACG,0.03
9,TATTGCACGTGGTTAC,0.03
10,TTAATCACGTGTGGTT,0.19
11,GGTTCCACGTGTTTGA,0.26
12,GATATCACGTGGTTGT,0.16
13,GTTTTCACGTGTCCTT,0.19
14,TGGTACACGTGATTTC,0.12
15,TTTATCACGTGGTGAT,0.1
16,TAGCACACGTGCGGGG,-0.06
17,TCTTACACGTGTGGTC,0.21
18,ATATGCACGTGGTTTT,-0.15
19,GGTACCACGTGTTGCG,0
20,TCATGCACGTGTGTTA,-0.11
21,TAGCTCACGTGGTGTG,0.21
22,GACGGCACGTGTTAAG,0.21
23,TTATACACGTGGTTAT,-0.1
24,GGTTTCACGTGCATGG,0.32
25,AATATCACGTGTTTGT,0
26,TGGCTCACGTGTAGTT,0.36

row,Sequence,relative binding free energy [kcal/mol]
1,GGGGTCACGTGAGCGA,0.28
2,GTCTACACGTGAGGGA,0.27
3,TCAGCCACGTGGTGGG,-0.23
4,TGGTGCACGTGACGGA,0.12
5,GTTGACACGTGGCCGG,-0.09
6,AAAGGCACGTGATATA,0.08
7,GGGAGCACGTGTGCAG,-0.14
8,TGAGGCACGTGTCTAG,-0.12
9,CGGCTCACGTGGTCGG,0.16
10,ATGTTCACGTGCAGAG,0.29
11,TTAGGCACGTGCTAGA,-0.19
12,GAATGCACGTGGTAGA,-0.03
13,GCCGGCACGTGGTTGA,-0.05
14,GGGAGCACGTGGTGCG,-0.25
15,GTGGGCACGTGCGAGG,-0.16
16,GAGGGCACGTGGTAAT,-0.15
17,ACGGGCACGTGGGCTT,-0.23
18,TCGGTCACGTGGGAAA,0.09
19,GGCGCCACGTGGGTTG,-0.12
20,TACTTCACGTGCGGTT,0.16
21,CATTGCACGTGTAGTA,0.2
22,AGCGTCACGTGAGTGG,0.18
23,AAATGCACGTGTAGGT,0.21
24,TTTGACACGTGACAGG,0.14
25,TTTTACACGTGGGTTG,-0.03
26,TGTTACACGTGGCGAG,0.17

row,Sequence,relative binding free energy [kcal/mol]
1,CTGTTCACGTGGGTTT,0.17
2,TGGGGCACGTGATTCA,-0.02
3,GGTCACACGTGGGAGT,0.01
4,GGTGGCACGTGCGCGC,-0.22
5,GTCATCACGTGGATGG,0.26
6,AGGTGCACGTGTCGGG,0.02
7,ATTGCCACGTGAAGGT,0.1
8,GGAGTCACGTGGGGCC,0.04
9,CTGGACACGTGGCGGG,0.03
10,GTATTCACGTGTTTTG,0.25
11,TCTGGCACGTGTGGGC,0.04
12,GCGGGCACGTGTTTTG,-0.08
13,GTACGCACGTGTGGGC,-0.11
14,ACTGTCACGTGTGTAG,0.02
15,TCGTACACGTGTTTAG,0.03
16,GGCTGCACGTGGGTCG,-0.09
17,AGCTTCACGTGGTAGT,0.13
18,GGTCTCACGTGAGATG,0.35
19,GGAATCACGTGGATTT,0.35
20,TCTATCACGTGTATGT,0.12
21,TCTGGCACGTGTATTA,-0.06
22,CTTGTCACGTGTGCCT,0.22
23,AGGAGCACGTGGCGTG,-0.18
24,AGATTCACGTGAGTTG,0.46
25,TTCATCACGTGTGTGA,0.07
26,TGAAGCACGTGATGTT,0.06

row,Sequence,relative binding free energy [kcal/mol]
1,TTAAGCACGTGATAGT,0.08
2,GTGTTCACGTGGATAA,0.29
3,TTTCGCACGTGAGGTC,0.11
4,ATTGTCACGTGGTAGT,0.07
5,AAAGTCACGTGTAGAT,0.31
6,TTAATCACGTGGTGCT,0.05
7,ATTATCACGTGTAGGG,0.16
8,AATGTCACGTGGATTG,0.21
9,ACGGTCACGTGATTTG,0.22
10,TCAGCCACGTGTGGGT,0.01
11,GGAGTCACGTGTAGTA,0.13
12,TTAAGCACGTGGAATT,-0.08
13,TGAACCACGTGGAGGG,-0.12
14,GTAGTCACGTGTGGTT,0.28
15,CACTGCACGTGGGGTT,-0.07
16,TAAGTCACGTGTATGC,0.01
17,GTAGTCACGTGAGGAA,0.38
18,TGTTTCACGTGTTTGC,0.1
19,TTACTCACGTGTAGTG,0.18
20,ATGAGCACGTGGTTAG,-0.18
21,GTGGACACGTGCAGTT,-0.13
22,GTGGCCACGTGAGGGA,0.14
23,AGATTCACGTGGTTCT,0.3
24,TATTCCACGTGTGTAT,0.07
25,TGTTGCACGTGGAAAT,-0.02
26,GGGTTCACGTGGTAGA,0.21

row,Sequence,relative binding free energy [kcal/mol]
1,TAGGGCACGTGTGGGT,0.04
2,TTTCTCACGTGTGTGC,0.19
3,AGATGCACGTGTGGGT,0.02
4,TGAATCACGTGGGCGC,0.01
5,TTACACACGTGAGGGG,0.21
6,GTGAGCACGTGGATTA,-0.05
7,CGGAGCACGTGGGTTT,-0.13
8,GTTGGCACGTGTGGAG,0.06
9,GCGTTCACGTGGTAAA,0.29
10,ATGCTCACGTGGGTAT,0.03
11,TAATTCACGTGGCTGT,0.21
12,GTTTTCACGTGTTTGT,0.3
13,TAGAGCACGTGTAGGA,-0.12
14,GGACGCACGTGGCGGT,-0.23
15,TTCTGCACGTGTGGCA,-0.03
16,GGTATCACGTGGGCCT,0.19
17,CGGCACACGTGGGGGG,-0.13
18,TTCTGCACGTGAAGTT,0.26
19,TTTGACACGTGTTAAT,0.02
20,ATTTGCACGTGTCGCT,-0.07
21,AGTTTCACGTGGGCTT,0.1
22,TATCACACGTGAAGGG,0.4
23,GCTGACACGTGGGTTT,-0.12
24,GATATCACGTGGGTGA,0.1
25,GTGCGCACGTGATCTG,0.06
26,TGGGCCACGTGTTGAG,-0.08

row,Sequence,relative binding free energy [kcal/mol]
1,CGGTACACGTGGGGTC,-0.13
2,ATTTGCACGTGTTCAA,-0.07
3,AGGTGCACGTGGGCGG,-0.22
4,CAGATCACGTGTTTGG,0.06
5,ATTGTCACGTGCGTGT,0.11
6,TCTGTCACGTGGTGGC,0.1
7,AGTGTCACGTGATCAG,0.1
8,TTGGGCACGTGTGACA,-0.06
9,TTTTTCACGTGCTAGA,0.29
10,CTTTTCACGTGCAGTG,0.19
11,GGGCGCACGTGAGTAG,0.06
12,CTGGTCACGTGGTACG,-0.08
13,GTCGGCACGTGTGGGA,0.06
14,TGTTACACGTGTACTG,0
15,CTAGTCACGTGGGTTT,-0.15
16,TCGGTCACGTGGTATA,-0.03
17,TTATTCACGTGGACTT,0.13
18,GGCCGCACGTGGGGTG,-0.29
19,GGGGGCACGTGGTGGT,-0.11
20,AAGTGCACGTGTAGCT,-0.03
21,TATGTCACGTGAAGGG,0.3
22,AATTTCACGTGGGACT,0.16
